In the supplement of paper PMC10126150:
Sequences with one replicate were seen in a single cluster, so their values are uncertain.

These sequences were tested on ATP (assay: switch fluorescence ratio, 500 uM ATP over buffer (Cy3 cluster intensity, sum of 5 cycles each) (fold (ratio)); higher = stronger signal-on switching upon ATP binding; sequences stand for … in TCGTCGGCAGCGTCAGATGTGTATAAGAGACAGTTTTTTTTTTTTTTTTTTTTTTTTT…TC). Details: aptamer strand: ATP DNA aptamer (quencher-CACCTGGGGGAGTATTGCGGAGGAAGG + anchor), 100 nM annealed; ATP concentration: 500 uM; one replicate.
Procedure, shortened: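 For every switch-domain sequence, the fluorescence ratio is the mean of per-cluster values, each being summed target-cycle Cy3 intensity over summed buffer-cycle Cy3 intensity. Clusters outside 100-1000 RFU were excluded. On a modified Illumina MiSeq flow-cell, the Cy3-labelled switching-strand clusters were annealed to 100 nM quencher-labelled ATP aptamer, imaged in selection buffer and then after 15 min with 500 uM ATP at 22 °C. Five such cycles were run, with NaOH stripping and re-annealing between them.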
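Note: ATP exposure 15 min at 22 °C before imaging.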

Row | Sequence | switch fluorescence ratio
1 | TCTCGGGAAT | 1.56
2 | TCTCGGTACT | 1.09
3 | TCTCTAAGGG | 0.978
4 | TCTCTGTGT | 1.05
5 | TCTCTGTTGT | 1.02
6 | TCTCTTTAAG | 1
7 | TCTCTTTTAG | 1.04
8 | TCTGAAGTAG | 1.02
9 | TCTGAATGAT | 0.979
10 | TCTGACCCCT | 1.13
11 | TCTGACCTCA | 1.08
12 | TCTGACGGCC | 1.1
13 | TCTGACTGCG | 1.04
14 | TCTGAGAACA | 0.995
15 | TCTGAGGAAG | 1.01
16 | TCTGATATAC | 2.22
17 | TCTGATCTAC | 1.1
18 | TCTGATTCA | 0.972
19 | TCTGATTTCG | 1.01
20 | TCTGATTTGC | 0.938
21 | TCTGCACGGT | 1.04
22 | TCTGCCATCT | 0.961
23 | TCTGCGGGGG | 0.98
24 | TCTGCGGTGC | 1.34
25 | TCTGCGTTGG | 1.15
26 | TCTGCTGCTG | 0.989

Row | Sequence | switch fluorescence ratio
27 | TCTGGATGCC | 1.02
28 | TCTGGCTCTT | 0.976
29 | TCTGTAAGCA | 1.42
30 | TCTGTAGTA | 1.06
31 | TCTGTCCATA | 1.01
32 | TCTGTGAACG | 0.986
33 | TCTGTGCGTA | 0.985
34 | TCTGTTCCTG | 1.05
35 | TCTGTTTATC | 0.971
36 | TCTGTTTCTA | 1.02
37 | TCTTAACCGT | 1.04
38 | TCTTAACTAC | 1.08
39 | TCTTACGCAT | 1.27
40 | TCTTACTCAT | 1.03
41 | TCTTAGAGTG | 1.02
42 | TCTTATATGT | 0.955
43 | TCTTATCCGT | 0.978
44 | TCTTATGTCA | 1
45 | TCTTCCTGTT | 0.993
46 | TCTTCGCATA | 2.49
47 | TCTTCGTGTG | 1.09
48 | TCTTCGTTAT | 1.07
49 | TCTTCTCAGG | 1.1
50 | TCTTCTTGGC | 1.01
51 | TCTTGAAAGG | 0.955
52 | TCTTGAGCGG | 1.01

Row | Sequence | switch fluorescence ratio
53 | TCTTGCGTG | 0.987
54 | TCTTGCTAGG | 1
55 | TCTTGCTCGC | 1.29
56 | TCTTGCTTCT | 1.01
57 | TCTTGTAGTA | 0.982
58 | TCTTGTCAGC | 0.999
59 | TCTTTATCTA | 1.02
60 | TCTTTATGCA | 1.13
61 | TCTTTCGGCG | 0.983
62 | TCTTTCTACC | 1.04
63 | TCTTTCTTG | 0.964
64 | TCTTTGACAT | 1.01
65 | TCTTTGCGAG | 1.01
66 | TCTTTGGAGT | 0.979
67 | TGAAAACCGC | 1.12
68 | TGAAAACGAG | 1.03
69 | TGAAAACTGT | 0.974
70 | TGAAACTGGG | 0.963
71 | TGAAAGACGA | 1.02
72 | TGAAAGCGCA | 0.975
73 | TGAAATGTGT | 1.03
74 | TGAACATGGT | 1.01
75 | TGAACCCGGA | 1.05
76 | TGAACCGAGA | 1.03
77 | TGAACGGGGC | 1.01
78 | TGAAGAAAAA | 0.964

Row | Sequence | switch fluorescence ratio
79 | TGAAGCACGG | 1.2
80 | TGAAGCCTAA | 1.06
81 | TGAAGTTCAA | 0.969
82 | TGAATATCAC | 1.12
83 | TGAATCAATA | 0.995
84 | TGAATCACTG | 1.15
85 | TGAATGAGGT | 0.988
86 | TGAATGATCC | 1.03
87 | TGAATGCTGC | 0.993
88 | TGAATGCTGG | 1.04
89 | TGAATGTAAA | 1.02
90 | TGAATTACAT | 0.999
91 | TGAATTACC | 1.02
92 | TGAATTCGAT | 0.999
93 | TGAATTGCCT | 1.27
94 | TGACACGTAG | 1.08
95 | TGACAGACTT | 1.06
96 | TGACAGGATC | 0.996
97 | TGACATTACG | 1.19
98 | TGACCAGGCG | 1.16
99 | TGACCCATTA | 1.02
100 | TGACCCCGCT | 1.09
101 | TGACCGCGTC | 1.03
102 | TGACCTCATT | 1.05
103 | TGACCTCCAC | 1.39
104 | TGACCTTCA | 2.27

Row | Sequence | switch fluorescence ratio
105 | TGACGATCAG | 0.969
106 | TGACGTCTAG | 1.02
107 | TGACTAAGGC | 1.03
108 | TGACTAGGCT | 1.03
109 | TGACTATGTG | 0.968
110 | TGACTATTT | 0.978
111 | TGACTCACC | 1.54
112 | TGACTGAGGA | 1.01
113 | TGACTGCCTT | 1.03
114 | TGACTTCATC | 1.11
115 | TGACTTCGCC | 2.12
116 | TGAGAAGCAT | 1
117 | TGAGACCAAC | 1.11
118 | TGAGAGCGGT | 1.01
119 | TGAGAGGCGG | 1
120 | TGAGAGGCTG | 0.998
121 | TGAGATGATG | 1.02
122 | TGAGATTCGA | 1.04
123 | TGAGATTCGT | 1
124 | TGAGCACTCT | 1.49
125 | TGAGCCGACT | 1.02
126 | TGAGCGGACT | 1.07
127 | TGAGCTCAT | 0.948
128 | TGAGGAAACG | 0.976
129 | TGAGGAGGTC | 0.97
130 | TGAGGCGAAG | 1.04

Row | Sequence | switch fluorescence ratio
131 | TGAGGGGACG | 1.16
132 | TGAGGTTGGA | 0.967
133 | TGAGTACCGA | 1.02
134 | TGAGTACCTT | 1.09
135 | TGAGTAGACC | 1.01
136 | TGAGTATCAT | 0.974
137 | TGAGTATGAT | 0.965
138 | TGAGTCGTCG | 0.988
139 | TGAGTCGTTA | 0.991
140 | TGAGTTAAGC | 1.02
141 | TGAGTTACCG | 0.979
142 | TGAGTTCCGG | 0.987
143 | TGAGTTGAGA | 0.985
144 | TGAGTTGCCT | 1.03
145 | TGAGTTTCAA | 0.951
146 | TGATAAGAAG | 1.01
147 | TGATACAAGT | 0.993
148 | TGATACAGGG | 0.998
149 | TGATATATTA | 0.929
150 | TGATCACAGA | 0.949
151 | TGATCATGAA | 1.02
152 | TGATCCAGCG | 0.996
153 | TGATCGTCGT | 0.978
